The full ranking holds about 33,000 sequences; the median of “E-score (-0.5 to 0.5)” is about -0.036, and the highest 2% start at about 0.37. The list shows a part of the results.
Each sequence was assayed against T1, Yer064c (UniProt P40041) (assay: PBM E-score (8-mer binding enrichment) (E-score (-0.5 to 0.5)); higher = stronger / more preferred TF binding; most listed sequences are background and not binding sites). Settings: protein concentration: 200 nM; construct: GST-full length.
T1 sequence: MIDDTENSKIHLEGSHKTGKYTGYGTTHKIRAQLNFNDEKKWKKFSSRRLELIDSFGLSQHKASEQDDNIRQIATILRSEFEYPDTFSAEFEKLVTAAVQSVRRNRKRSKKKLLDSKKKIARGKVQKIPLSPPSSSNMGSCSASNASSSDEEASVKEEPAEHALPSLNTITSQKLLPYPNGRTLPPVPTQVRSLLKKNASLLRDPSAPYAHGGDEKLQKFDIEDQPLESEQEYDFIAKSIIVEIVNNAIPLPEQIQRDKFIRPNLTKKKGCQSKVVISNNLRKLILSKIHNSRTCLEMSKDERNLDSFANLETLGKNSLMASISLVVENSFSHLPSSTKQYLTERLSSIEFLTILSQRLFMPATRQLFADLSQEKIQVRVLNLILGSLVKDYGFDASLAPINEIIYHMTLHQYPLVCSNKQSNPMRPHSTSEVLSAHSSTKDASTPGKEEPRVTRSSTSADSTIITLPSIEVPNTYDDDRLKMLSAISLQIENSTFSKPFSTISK
Method: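 Universal 'all 10-mer' protein binding microarrays (Agilent AMADID 015681) probed with GST-tagged S. cerevisiae TFs (full-length or DBD) made by in vitro transcription/translation (PURExpress), about 100-200 nM. Bound TF was detected with fluorescent anti-GST. Each ungapped 8-mer (which stands for itself and its reverse complement) is scored by the PBM enrichment score (E-score), a modified Wilcoxon-Mann-Whitney statistic from -0.5 to +0.5, computed with the Universal PBM Analysis Suite. Scale: above 0.35 generally sequence-specific binding.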

Sequence	PBM E-score
AGGGGACT	0.234
ACCTTTGG	-0.175
GAGTTAGC	0.0703
GTGCGCAA	-0.00229
CGAACGCG	-0.0743
TCCCTCGA	-0.0167
CGTTTCGC	-0.125
GCAACTAA	0.0789
GTCGTCTA	0.0967
AGTAAACA	0.0961
CAAGAAGC	-0.0192
AGGCCTCA	-0.142
CACCCGGA	-0.0433
CCCCGGAC	-0.237
CAACGGAG	-0.224
CCACTCAG	0.0632
CTTACAGC	-0.0346
ATCGCCCC	-0.0169
CTTACTAC	-0.0948
GGAGGGAC	-0.271
CAGGACTG	0.221
ACTAGTGC	0.0675
ACACTAAC	-0.00977
CACACCCA	0.0764
ATTTTTGG	-0.0135

Sequence	PBM E-score
CGATAGAC	0.00233
GTCTCCAA	0.022
CCTCCTAC	-0.238
GTACTAAA	0.121
CCGACGTA	-0.198
AGTGCACA	-0.0839
AATATGGC	-0.2
AGCCTGTC	0.0571
CAAAATGC	-0.0258
GCTATGTA	0.0249
CCATGAGA	0.0159
AGGGTTAT	-0.249
ATCAGTGG	0.0632
GTGGGATA	-0.175
ACATTGGG	-0.276
ACCAGGCA	-0.0182
TACTTAGA	0.167
ATTCTACA	-0.0249
AGAGGGCC	-0.18
AAATTGGG	-0.172
CTAACGCC	-0.163
AGCTCTCC	-0.204
ACGAATCC	0.171
CTTTTATA	0.0172
TACAACCA	0.119

Sequence	PBM E-score
CCTTACAG	-0.2
CCGCAGTC	0.285
TTGATCAA	0.139
ACGGACGA	0.0598
GTTGCGGA	-0.00464
CCAAGCCC	-0.159
CAGTAACA	0.0175
AGCATCTG	-0.161
ATGTTTTA	0.108
TAACCTGA	0.163
AGAGAGCC	-0.112
ACGCGCTG	-0.172
CCACGGTA	-0.0324
GTCACCAA	0.185
AATGGGGA	-0.288
TGGGGGAA	-0.297
GACACAAC	-0.0181
AAACAGTA	0.0327
GCATATGA	0.14
CGAGCCTA	-0.0877
AATGGGCG	-0.0714
AAGAGTTA	0.0692
CCTTTAGC	-0.151
CATACCGC	0.0449
GCCTCCAC	-0.152

Sequence	PBM E-score
AGCTCGTG	0.00468
AAACGTTT	-0.0703
CTGCACGA	0.0475
ACCGATCC	-0.111
GAGGAGAC	0.104
CTGTGCCC	-0.173
AGTGTTCA	0.0418
ACCCGTCC	-0.0651
GAAACCAA	-0.059
ACGTGCTG	-0.265
AAGCGCGC	-0.0597
TCCGGGCA	-0.08
CCGAGTTC	-0.0795
TCCTAGAA	-0.119
ATAGGGCC	-0.379
CGATACGC	-0.217
CCTCGATC	-0.197
CACCAATC	-0.0186
CTGGCAGA	-0.00993
ACGAGTCT	0.312
CTACGTCA	-0.0828
CACGTTAG	0.151
ACAGCGGT	-0.0996
GGCGTTAA	-0.128
GTCAACTA	0.262

Sequence	PBM E-score
ATCACGGA	0.104
ACAGAGCC	-0.108
CCGTGTCG	-0.165
ACTCGATA	0.254
CATCGAAA	-0.0293
AATGTCGG	-0.0528
CCCCTATA	-0.0947
AATACGCG	-0.195
TATCATCA	0.0107
GAATCAGC	0.417
AGTTAACT	0.0919
CATGTCAA	-0.0691
CCAAAGCG	-0.249
ATATTGGG	-0.284
AATGACCC	-0.0705
CCCTATTA	-0.165
ACAGGGTG	-0.0572
ATCTCAAC	0.18
AGAGCGCG	-0.0984
CAGGCCAA	-0.193
CAATGAAC	-0.0322
ACACCACG	-0.122
ACCATGAG	0.0211
CAATTTTC	-0.244
AGATCCTC	-0.326

Sequence	PBM E-score
CTATCGTA	0.025
AGGGGGCA	-0.244
ATCTGTTA	0.0654
AAGAAACT	-0.0492
CGATCCCA	-0.137
AACATAAT	0.0551
CAAAATGA	0.118
GTGGTATA	-0.0168
ATTATGGC	0.0943
ACGAGCAA	-0.0062
CCCCCTGA	-0.184
CCTTATCC	-0.181
ACTGCAAT	0.087
GCCCAGGC	-0.291
CGCCGAAG	0.051
ACCACTGG	-0.176
CGACCACA	-0.0944
ACTCGCGA	0.224
GACGCGCC	-0.293
AGCAGCAG	-0.0489
ACAACGAA	0.131
ACAATTCC	-0.158
ATCGTTTA	0.142
ATGCGCCC	-0.187
AGCTGGAG	-0.13

Sequence	PBM E-score
GACAGTAA	0.165
TGAATAAA	0.157
ATGAAGGG	-0.109
CGTTGGGA	-0.147
GCCAGACC	-0.295
CTACGGAG	0.0201
AGGGCTTG	-0.118
CAAGCTAC	-0.0324
CGGGATAG	-0.189
ACAGTAAC	0.0667
CCCCTAGC	-0.345
GGCACGCA	-0.34
CACTGCTA	0.151
ACGCGGGG	-0.0963
AACTAGTG	-0.0858
CGTCCGAG	-0.187
AGACCTAG	-0.0226
CAATCCTA	-0.0186
AGTCGGGG	0.304
ATAGGCGA	-0.103
GGCTGACC	-0.0263
CGTTAGTA	0.0645
AACAATCG	-0.0784
CGGTCTAC	-0.0583
GATAACCA	0.0591

Sequence	PBM E-score
TCGGAGAA	0.0416
CCTTAAGC	-0.174
CGACGAGC	-0.0822
ACTGGGGC	-0.0604
TCGAGCAA	0.00286
AGGACATG	-0.0955
CGGACTTA	0.203
GCAGGCGA	-0.0244
GACAGGTC	-0.248
CAGCGTTA	0.00377
TAAATAAA	0.0687
ACTAAGTA	0.235
AGGTATGC	-0.0991
CCGGCCAC	-0.295
AAGGGCGC	-0.139
CATCTACC	-0.0249
AACACGGA	0.0872
ATAGTGCG	-0.199
CAAAAATG	-0.0502
AAAGGTTG	-0.0089
CCTGACGC	-0.133
AGGACAGG	-0.316
CTATTTGA	0.0437
AACTAGGA	-0.00798
GAAGATAC	-0.135

Sequence	PBM E-score
TAATGTCA	-0.258
CCCACCCA	-0.141
AGTATTAT	0.0665
GCTAGGCC	-0.192
AACTATGG	0.0319
AGAACTTC	-0.0562
ACCAGAGA	-0.0301
ACTGGACG	-0.148
CAGCTGGA	0.103
GTTAACGA	0.0669
GGCGAATA	-0.0639
GCACTAAA	0.0628
GGAGTCAA	0.431
AGATTGTC	-0.0569
CTCGTTAC	0.0242
TATGTCGA	0.11
AAATACGT	-0.298
CTCTGCGA	0.234
CTTGTCTA	-0.0944
AACGAACG	-0.00189
CCGACCCC	-0.299
AAGGCTCC	-0.264
AGACGCTC	-0.242
AGATCCCA	-0.186
CTATCACC	-0.18

Sequence	PBM E-score
CTTTACAA	-0.0468
CTTCTTGA	0.153
AAGCGCTG	-0.0331
CTCAAGGA	0.106
AAGACCTC	-0.0548
ACCCATAG	0.101
TCAGCCGA	0.21
CCTCGCTA	-0.157
CTGTTACA	-0.0433
GCAGGACA	-0.234
AAATAAGA	0.0164
ACCCGTTA	-0.127
ATATAAGA	0.156
CCGCTCGC	-0.338
CGTTTGCA	-0.157
CAATGCTA	0.0441
CTGTCGAA	-0.216
AGGCCAAA	-0.0373
CAAGGAAC	-0.0409
AAAGCAAG	0.00899
AAGATTCG	0.205
GCTTAAGA	0.00642
AGTGATAA	-0.0496
AGCTAACG	-0.194
TCAGGCAA	0.0469

Sequence	PBM E-score
ATGCAGAC	0.0597
CCCATGAA	-0.0941
CGGAGCTC	-0.288
CTTCCAAA	0.0995
GGACATAC	0.00983
ACTTAGAT	0.182
AACAAATG	0.00915
CCTTTTAC	-0.124
CGTGCATC	-0.141
AGTAAAAC	0.00304
ACTGCCGC	-0.0169
CCCGCGAA	0.0838
ATCGTAAG	-0.0159
GAAGATCC	-0.181
AACGTTTG	-0.298
CAGCTAGA	-0.0194
GTGCTCTA	-0.172
AGATAACA	0.0332
CATAGAAC	-0.0992
CCGATACA	-0.183
CCCTCTGC	-0.226
ATGCTGCG	-0.0996
AATGGCGG	-0.171
CTCAAACC	-0.0776
AATCGGTC	0.0165

Sequence	PBM E-score
ACTAGTTG	0.038
GTACAGAC	0.177
CACAGTAG	0.0897
CCATCTTA	-0.00497
CGAGGGAG	-0.0424
AGTCTGCA	0.214
CAGCAGCA	-0.107
AAGTCTGG	-0.117
ATCATATG	0.278
GACTCGCA	0.414
GATAACGA	0.0625
ATCCATCG	-0.0255
ATGTAGAG	-0.242
CAAAATTG	-0.079
CACAATGA	0.231
CCCTCTAG	-0.0457
AGTCGGGA	0.24
AACCCGGC	-0.186
GACTGCGC	0.275
TAGGGGCA	-0.214
CATACTCA	0.286
CTTTAAAC	-0.16
CGGATGAA	0.0717
GCTCTTCA	-0.0893
ACCTCGTA	-0.00955

Sequence	PBM E-score
CGCCACAC	-0.357
ATAAAACA	0.0178
CCATAGCA	-0.025
AGAGAAGG	-0.159
ATTGAATC	0.375
AGACTAAG	0.383
ATTTCACG	0.0504
GAGCTTGA	0.0286
CGGAACCC	-0.142
ACCTGCTA	-0.124
AGTTGAGG	0.00469
ACTTATCC	0.0374
AAGGTTTC	0.0314
GCCTGGAC	-0.206
AGGTCGCG	-0.153
ACCTACCA	-0.0333
CGAGAGGC	-0.247
AAATACTC	0.248
GCGTCTAA	-0.097
ATGGCGGG	-0.0628
CGCTAGAA	-0.134
CGGCAGCA	-0.417
CGACTTCC	0.201
GCGCTTAA	-0.0183
TCGTGGCA	-0.0418

Sequence	PBM E-score
GGAGTCAC	0.485
GCCTTTCA	-0.182
ATGGCAGG	-0.263
GTCCGCAA	0.00032
AGACAAGG	-0.194
ACTATGAA	0.2
ATGGGCGA	0.0478
CGCAGCTC	-0.196
CCTATTGC	-0.246
AAATACCT	-0.197
GCATGGGA	-0.224
AAATTCTC	-0.233
GATCCCAA	-0.0873
CGACCTGA	0.185
GCTGTATA	-0.136
ACACTGGA	-0.0404
AACGCCGT	-0.109
AATCAGCG	0.344
GACATACA	-0.0664

— the supplement of paper PMC3334620
